{"source": "paper PMC4336329", "about": "(PLoS ONE, 2015)", "note": "Screen size: about 310,000 compounds; about 2,200 (0.71%) showed an effect of 50% or more. Effects have a minus sign here. This is one part of the list."}
{"target": "human ether-à-go-go-related gene (hERG) potassium channel (human, UniProt Q12809)", "sequence (Q12809 whole entry, looked up)": "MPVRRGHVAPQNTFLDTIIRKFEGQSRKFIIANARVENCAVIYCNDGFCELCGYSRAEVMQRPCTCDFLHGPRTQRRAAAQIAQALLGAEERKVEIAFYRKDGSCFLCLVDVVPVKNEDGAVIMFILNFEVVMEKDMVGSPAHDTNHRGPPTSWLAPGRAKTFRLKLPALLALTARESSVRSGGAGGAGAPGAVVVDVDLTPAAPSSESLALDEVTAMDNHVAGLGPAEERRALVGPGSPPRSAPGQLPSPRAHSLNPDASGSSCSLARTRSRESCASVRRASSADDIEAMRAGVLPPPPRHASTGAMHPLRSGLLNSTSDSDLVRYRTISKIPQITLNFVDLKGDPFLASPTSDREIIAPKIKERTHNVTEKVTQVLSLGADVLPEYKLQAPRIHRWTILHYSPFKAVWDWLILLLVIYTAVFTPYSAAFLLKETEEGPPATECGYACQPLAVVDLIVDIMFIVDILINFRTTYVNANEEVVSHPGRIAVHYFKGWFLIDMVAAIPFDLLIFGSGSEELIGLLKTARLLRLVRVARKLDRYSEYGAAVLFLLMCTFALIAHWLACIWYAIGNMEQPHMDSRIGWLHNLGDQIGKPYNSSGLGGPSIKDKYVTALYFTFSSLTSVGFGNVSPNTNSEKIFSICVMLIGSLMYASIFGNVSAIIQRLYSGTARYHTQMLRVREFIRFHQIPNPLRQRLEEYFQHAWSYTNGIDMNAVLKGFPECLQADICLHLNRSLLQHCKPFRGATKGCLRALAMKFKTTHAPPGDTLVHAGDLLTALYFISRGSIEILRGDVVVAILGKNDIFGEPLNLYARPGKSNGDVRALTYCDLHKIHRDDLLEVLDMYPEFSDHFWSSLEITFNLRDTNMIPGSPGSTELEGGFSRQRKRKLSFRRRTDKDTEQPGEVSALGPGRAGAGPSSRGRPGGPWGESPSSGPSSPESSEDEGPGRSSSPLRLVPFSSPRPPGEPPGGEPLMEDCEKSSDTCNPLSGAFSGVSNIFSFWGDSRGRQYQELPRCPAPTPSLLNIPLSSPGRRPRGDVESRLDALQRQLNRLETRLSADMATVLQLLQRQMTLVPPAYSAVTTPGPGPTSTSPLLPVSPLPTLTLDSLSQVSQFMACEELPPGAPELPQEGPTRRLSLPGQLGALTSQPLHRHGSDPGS", "test": "primary screen, population patch clamp on CHO cells stably expressing hERG", "units": {"hERG current change (%, negative = inhibition) at 1uM": "%"}}
{"compound": "COC(=O)c1cc(OC)c(OC)cc1N1C(=O)CC(C)(C)CC1=O", "hERG current change (%, negative = inhibition) at 1uM": 16.8}
{"compound": "COc1ccccc1OCCNC(=O)CC(NC(C)=O)c1ccccc1", "note": "(centres unmarked)", "hERG current change (%, negative = inhibition) at 1uM": 18.3}
{"compound": "CCCCn1c(N)c(N(CCOC)C(=O)C2CC(=O)N(Cc3ccc(C)cc3)C2)c(=O)[nH]c1=O", "note": "(centres unmarked)", "hERG current change (%, negative = inhibition) at 1uM": -17.6}
{"compound": "O=C(CSc1nnc(NC2CCCCC2)s1)NC1CCS(=O)(=O)C1", "note": "(centres unmarked)", "hERG current change (%, negative = inhibition) at 1uM": 1.91}
{"compound": "CCOc1ccccc1C(=O)Nc1cc(C)ccc1NC(=O)c1ccco1", "hERG current change (%, negative = inhibition) at 1uM": -3.46}
{"compound": "CCN(CC(=O)Nc1ccccc1C(F)(F)F)C(=O)CSCc1ccc(C)cc1", "hERG current change (%, negative = inhibition) at 1uM": 14}
{"compound": "CC(C(=O)O)N(C(=O)c1ccccc1)c1ccc(F)c(Cl)c1", "note": "(centres unmarked)", "hERG current change (%, negative = inhibition) at 1uM": 14.1}
{"compound": "O=S(=O)(Cc1cc(-c2ccccc2)no1)c1ccccc1", "hERG current change (%, negative = inhibition) at 1uM": 3.83}
{"compound": "O=C(OCc1ccccc1Cl)C1CC(=O)N(Cc2ccco2)C1", "note": "(centres unmarked)", "hERG current change (%, negative = inhibition) at 1uM": 19.9}
{"compound": "CCS(=O)(=O)N1Cc2ccccc2CC1C(=O)N(C)CC(=O)Nc1ccc(F)c(F)c1F", "note": "(centres unmarked)", "hERG current change (%, negative = inhibition) at 1uM": 15.3}
{"compound": "COc1cccc(OCc2cc(/C=N/NC(=O)c3ccn[nH]3)ccc2OC)c1", "hERG current change (%, negative = inhibition) at 1uM": 0.0878}
{"compound": "Cc1ccc(NC(=O)C2CCCN(S(=O)(=O)c3cccs3)C2)cc1", "note": "(centres unmarked)", "hERG current change (%, negative = inhibition) at 1uM": 6.25}
{"compound": "COc1ccc(CN2CCC(C(=O)c3ccc(Cl)cc3)CC2)cc1", "hERG current change (%, negative = inhibition) at 1uM": -80.9}
{"compound": "O=C(Nc1ccccc1)c1ccccc1O", "hERG current change (%, negative = inhibition) at 1uM": 20.3}
{"compound": "COc1ccc(C(=O)O)c(OC)n1", "hERG current change (%, negative = inhibition) at 1uM": 5.36}
{"compound": "O=S(=O)(c1ccc(Cl)cc1)N1CCN(S(=O)(=O)N2CCCCCC2)CC1", "hERG current change (%, negative = inhibition) at 1uM": 8.07}
{"compound": "COc1ccc(CCN(Cc2cc3cc(C)cc(C)c3nc2Cl)C(=O)C2CC2)cc1", "hERG current change (%, negative = inhibition) at 1uM": 14.6}
{"compound": "Cc1ccsc1/C=N/Nc1cccc(C(=O)O)c1", "hERG current change (%, negative = inhibition) at 1uM": -2.31}
{"compound": "Cc1c(C)n(CCCN(C)C)c2ncnc(Nc3ccccc3)c12", "hERG current change (%, negative = inhibition) at 1uM": 5.94}
{"compound": "CCCCC1=CC2=C(c3ccco3)C(=O)C(C)(OC(=O)c3ccc(OC)cc3)C(=O)C2=CN1C1CCCC1", "note": "(centres unmarked)", "hERG current change (%, negative = inhibition) at 1uM": 14.8}
{"compound": "CCCOc1ccc(/C(O)=C2/C(=O)C(=O)N(CCCn3ccnc3)C2c2cccs2)cc1", "note": "(centres unmarked)", "hERG current change (%, negative = inhibition) at 1uM": 18.1}
{"compound": "O=C1COc2ccc(C(=O)COC(=O)C3CCN(S(=O)(=O)c4cccs4)CC3)cc2N1", "hERG current change (%, negative = inhibition) at 1uM": -4.83}
{"compound": "COc1ccccc1C(=O)COC(=O)c1cccc(S(=O)(=O)N2CCCC2)c1", "hERG current change (%, negative = inhibition) at 1uM": 9.99}
{"compound": "O=C(CCOc1ccccc1)Nc1ccc(S(=O)(=O)N2CCCC2)cc1", "hERG current change (%, negative = inhibition) at 1uM": 1.8}
{"compound": "Oc1ccc(Cl)cc1CNc1nccs1", "hERG current change (%, negative = inhibition) at 1uM": 15.1}
{"compound": "O=C(CSc1ccc(-c2cccc([N+](=O)[O-])c2)nn1)N1CCCCC1", "hERG current change (%, negative = inhibition) at 1uM": 10.9}
{"compound": "COc1ccc(C2=NN(c3ccc(C=O)cc3)C(c3ccccc3)C2)cc1", "note": "(centres unmarked)", "hERG current change (%, negative = inhibition) at 1uM": 19.7}
{"compound": "CCOc1cc(/C=C2\\C(=N)N3N=C(S(=O)(=O)CC)SC3=NC2=O)ccc1OC(=O)c1ccco1", "hERG current change (%, negative = inhibition) at 1uM": 16.2}
{"compound": "CN(C(=O)CSc1nnnn1-c1ccccc1)C1CCCCC1", "hERG current change (%, negative = inhibition) at 1uM": 0.0266}
{"compound": "CC(C)(C)C(=O)O/N=C(\\N)c1ccc(-c2csnn2)cc1", "hERG current change (%, negative = inhibition) at 1uM": 13.8}
{"compound": "COc1ccc(C2OCC3(CO2)SC(=O)NC3=O)cc1OC", "note": "(centres unmarked)", "hERG current change (%, negative = inhibition) at 1uM": 9.03}
{"compound": "COCCNC(=O)C(c1ccc(F)cc1)N(Cc1ccco1)C(=O)CCC(=O)Nc1nccs1", "note": "(centres unmarked)", "hERG current change (%, negative = inhibition) at 1uM": 6.71}
{"compound": "CCOC(=O)C1CCCN(C(=O)c2ccc(C)c(S(=O)(=O)N3CCCCC3)c2)C1", "note": "(centres unmarked)", "hERG current change (%, negative = inhibition) at 1uM": -2.16}
{"compound": "Cn1c2c(c(=O)n(C)c1=O)C(CC(=O)Nc1ccc(F)cc1)C(=O)N2", "note": "(centres unmarked)", "hERG current change (%, negative = inhibition) at 1uM": 1.61}
{"compound": "CCS(=O)(=O)N1CCC(C(=O)Nc2ccc3c(c2)CCC3)CC1", "hERG current change (%, negative = inhibition) at 1uM": -1.82}
{"compound": "N#Cc1sc2nc3c(c(-c4cccnc4)c2c1N)CCC3", "hERG current change (%, negative = inhibition) at 1uM": -10.6}
{"compound": "C=CCn1c(=O)c2ccccc2n2c(SCc3nc(N)nc(Nc4ccccc4C)n3)nnc12", "hERG current change (%, negative = inhibition) at 1uM": 3.47}
{"compound": "Cc1c(O)cccc1C(=O)N[C@@H](CSc1ccccc1)[C@H](O)CN1C[C@H]2CCCC[C@H]2C[C@H]1C(=O)NC(C)(C)C", "hERG current change (%, negative = inhibition) at 1uM": 8.45}
{"compound": "Cc1cc(C)n2nc(S(=O)(=O)NC3CCCCC3)nc2n1", "hERG current change (%, negative = inhibition) at 1uM": 9.08}
{"compound": "CCCCN(C)S(=O)(=O)c1ccc(C(=O)N(CCN(C)C)c2nc3ccc(C)cc3s2)cc1.Cl", "hERG current change (%, negative = inhibition) at 1uM": 2.16}
{"compound": "OCCNCCO", "hERG current change (%, negative = inhibition) at 1uM": 3.96}
{"compound": "CN(C)C=O.Cc1ccc(-c2cc(-c3n[nH]c(=S)o3)c3ccccc3n2)cc1", "hERG current change (%, negative = inhibition) at 1uM": 14.9}
{"compound": "O=C(CSc1ccccc1F)NCC1(N2CCCCC2)CCCCC1", "hERG current change (%, negative = inhibition) at 1uM": 5.47}
{"compound": "Cc1ccc(C(=O)Oc2cccc(NC(=O)c3cccs3)c2)cc1S(=O)(=O)N1CCOCC1", "hERG current change (%, negative = inhibition) at 1uM": -0.011}
